Holding throughout (assay): glycan array binding signal (z-score within array); higher = stronger binding
Common to all, as to conditions: glycan notation: IUPAC condensed, linker removed

Test [1] addresses Gal(b1-4)GalNAc(b1-3)[Fuc(a1-2)]Gal(b1-4)GlcNAc. The gist of the method:
(§1)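 The binding signal is a Z-score computed within each array and averaged over linkers. Arrays of the same protein sequence at different concentrations or buffers were also averaged together. Data originate from 3228 arrays in the Consortium for Functional Glycomics database, kept only where the protein sequence was available.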

In another test the target is Gal(b1-4)Glc. In outline:
as §1

Another test concerns the target Gal(b1-4)Glc6S. In outline: as §1
Another test has as its target Gal(b1-4)GlcNAc. In outline: as §1
For test [2], the target named is Gal(b1-4)GlcNAc(a1-6)Gal(b1-4)GlcNAc. In outline:
as §1

The next test addresses Gal(b1-4)GlcNAc(b1-2)Man. In outline: as §1
The target in test [3] is Gal(b1-4)GlcNAc(b1-2)Man(a1-3)Man(b1-4)GlcNAc(b1-4)GlcNAc. In outline:
as §1

The target in test [4] is Gal(b1-4)GlcNAc(b1-2)Man(a1-3)[Gal(b1-4)GlcNAc(b1-2)Man(a1-6)]Man(b1-4)GlcNAc(b1-4)GlcNAc. The gist of the method: as §1
For test [5], the target named is Gal(b1-4)GlcNAc(b1-2)Man(a1-3)[Gal(b1-4)GlcNAc(b1-2)Man(a1-6)]Man(b1-4)GlcNAc(b1-4)[Fuc(a1-6)]GlcNAc. In outline: as §1
Test [6] concerns the target Gal(b1-4)GlcNAc(b1-2)Man(a1-3)[Gal(b1-4)GlcNAc(b1-2)Man(a1-6)][Gal(b1-4)GlcNAc(b1-4)]Man(b1-4)GlcNAc(b1-4)[Fuc(a1-6)]GlcNAc. The gist of the method: as §1
Test [7] concerns the target Gal(b1-4)GlcNAc(b1-2)Man(a1-3)[Gal(b1-4)GlcNAc(b1-2)Man(a1-6)][GlcNAc(b1-4)]Man(b1-4)GlcNAc(b1-4)[Fuc(a1-6)]GlcNAc. In outline:
as §1

Test [8] deals with Gal(b1-4)GlcNAc(b1-2)Man(a1-3)[GlcNAc(b1-2)Man(a1-6)]Man(b1-4)GlcNAc(b1-4)GlcNAc. In outline: as §1
Test [9] has as its target Gal(b1-4)GlcNAc(b1-2)Man(a1-3)[GlcNAc(b1-4)][Gal(b1-4)GlcNAc(b1-2)Man(a1-6)]Man(b1-4)GlcNAc(b1-4)GlcNAc. In outline:
as §1

In test [10] the target is Gal(b1-4)GlcNAc(b1-2)Man(a1-3)[Man(a1-6)]Man(b1-4)GlcNAc(b1-4)GlcNAc. In outline:
as §1

Test [11] deals with Gal(b1-4)GlcNAc(b1-2)Man(a1-6)Man(b1-4)GlcNAc(b1-4)GlcNAc. In outline:
as §1

The target of test [12] is Gal(b1-4)GlcNAc(b1-2)Man(a1-6)[GlcNAc(b1-2)Man(a1-3)]Man(b1-4)GlcNAc(b1-4)GlcNAc. The gist of the method: as §1
Test [13] has as its target Gal(b1-4)GlcNAc(b1-2)Man(a1-6)[Man(a1-3)]Man(b1-4)GlcNAc(b1-4)GlcNAc. In outline:
as §1

Test [14] deals with Gal(b1-4)GlcNAc(b1-2)[Gal(b1-4)GlcNAc(b1-4)]Man(a1-3)[Gal(b1-4)GlcNAc(b1-2)Man(a1-6)]Man(b1-4)GlcNAc(b1-4)GlcNAc. The gist of the method: as §1
In test [15] the target is Gal(b1-4)GlcNAc(b1-2)[Gal(b1-4)GlcNAc(b1-4)]Man(a1-3)[Gal(b1-4)GlcNAc(b1-2)[Gal(b1-4)GlcNAc(b1-6)]Man(a1-6)]Man(b1-4)GlcNAc(b1-4)GlcNAc. In outline:
as §1

Test [16] deals with Gal(b1-4)GlcNAc(b1-2)[Gal(b1-4)GlcNAc(b1-4)]Man(a1-3)[GlcNAc(b1-4)][Gal(b1-4)GlcNAc(b1-2)Man(a1-6)]Man(b1-4)GlcNAc(b1-4)GlcNAc. In outline:
as §1

The target of test [17] is Gal(b1-4)GlcNAc(b1-2)[Gal(b1-4)GlcNAc(b1-4)]Man(a1-3)[GlcNAc(b1-4)][Gal(b1-4)GlcNAc(b1-2)[Gal(b1-4)GlcNAc(b1-6)]Man(a1-6)]Man(b1-4)GlcNAc(b1-4)GlcNAc. In outline:
as §1

The target in test [18] is Gal(b1-4)GlcNAc(b1-2)[Gal(b1-4)GlcNAc(b1-6)]Man(a1-6)[Gal(b1-4)GlcNAc(b1-2)Man(a1-3)]Man(b1-4)GlcNAc(b1-4)GlcNAc. The gist of the method:
as §1

Some of the results follow.

Consider APVPVTKLVCDGDTYKCTAYLDFGDGRWVAQWDTNVFHTG [PhoSpL (Pholiota squarrosa)], for which the “glycan array binding signal (z-score)” value in test [1] is -0.431; in the test with Gal(b1-4)Glc it was 0.138; in the test with Gal(b1-4)Glc6S, -0.231; with Gal(b1-4)GlcNAc, 0.031; in test [2], -0.288; in the test with Gal(b1-4)GlcNAc(b1-2)Man, -0.221. The “glycan array binding signal (z-score)” value in test [3] was 0.18; in test [4], -0.453; in test [5] it was 13.4; in test [6], 0.527; in test [7] it was -0.011; in test [8], -0.403. In addition, the “glycan array binding signal (z-score)” value in test [9] is -0.406; in [10], 0.871; in test [11], -0.178; in test [12] it was -0.432; in test [13] it was -0.337; in test [14], -0.025. Besides, the “glycan array binding signal (z-score)” value in test [15] is -0.639; in test [16], -0.094; in [17], 0.046; in test [18], -0.044.

Source of the values: the supplement of paper PMC8728848.
